Measurements from US20180164286A1 (MEDICAL DIAGNOSTIC LABORATORIES, published 2018).

B1: Small BiT (SB)-eIF4E, full-length (other)
chain: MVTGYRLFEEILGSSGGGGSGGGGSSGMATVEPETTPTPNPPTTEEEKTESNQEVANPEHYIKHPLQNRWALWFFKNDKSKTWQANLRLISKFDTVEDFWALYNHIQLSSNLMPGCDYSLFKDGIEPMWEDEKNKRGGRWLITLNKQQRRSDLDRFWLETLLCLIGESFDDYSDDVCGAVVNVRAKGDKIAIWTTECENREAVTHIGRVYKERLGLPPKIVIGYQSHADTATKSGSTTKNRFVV
notes: N-terminal Small BiT fusion of full-length eIF4E (cDNA Origene RC207333), expressed intracellularly in HEK293, MCF-7 or HEK293-derived clones; also called Full-length SB-eIF4E; SB-linked eIF4E

Key:
[1] = target: B1; test: split-luciferase (NanoBiT) complementation in HEK293 cells
[2] = target: B1; test: split-luciferase (NanoBiT) complementation in HEK293 cells, FIG. 21
[3] = target: T1, 4E-BP1 with C-terminal LB at residue 75 (UniProt Q13541 1-75); test: split-luciferase (NanoBiT) luminescence in HEK293 cells
T1 construct: range 1-75; C-terminally truncated 4E-BP1 with the Large BiT attached at the truncated end; not shown: linker and Large BiT of vector pBiT1.1-C [TK/LgBiT] at the C-terminus

| Binder | binding result [2] | further results |
| --- | --- | --- |
| LB-4E-BP1 with T37E and T46E mutations (other, Phospho-mimetic double mutant made on the LB-4E-BP1 plasmid; The residue numbers count on 4E-BP1 itself; also called T37/46E (double-mutant)) MVFTLEDFVGDWEQTAAYNLDQVLEQGGVSSLLQNLAVSVTPIQRIVRSGENALKIDIHVIIPYEGLSADQMAQIEEVFKVVYPVDDHHFKVILPYGTLVIDGVTPNMLNYFGRPYEGIAVFDGKKITVTGTLWNGNKIIDERLITPDGSMLFRVTINSGSSGGGGSGGGGSSG[about 120 residues with changes not written out] |  | binding result [1]: binds |
| LB-4E-BP1 with T37E mutation (other, Phospho-mimetic mutant made on the LB-4E-BP1 plasmid) MVFTLEDFVGDWEQTAAYNLDQVLEQGGVSSLLQNLAVSVTPIQRIVRSGENALKIDIHVIIPYEGLSADQMAQIEEVFKVVYPVDDHHFKVILPYGTLVIDGVTPNMLNYFGRPYEGIAVFDGKKITVTGTLWNGNKIIDERLITPDGSMLFRVTINSGSSGGGGSGGGGSSG[about 120 residues with changes not written out] | binds |  |
| LB-4E-BP1 with T46E mutation (other, Phospho-mimetic mutant made on the LB-4E-BP1 plasmid; The residue number counts on 4E-BP1 itself) MVFTLEDFVGDWEQTAAYNLDQVLEQGGVSSLLQNLAVSVTPIQRIVRSGENALKIDIHVIIPYEGLSADQMAQIEEVFKVVYPVDDHHFKVILPYGTLVIDGVTPNMLNYFGRPYEGIAVFDGKKITVTGTLWNGNKIIDERLITPDGSMLFRVTINSGSSGGGGSGGGGSSG[about 120 residues with changes not written out] | binds |  |
| LB-4E-BP1 with T70E mutation (other, Phospho-mimetic mutant made on the LB-4E-BP1 plasmid; The residue number counts on 4E-BP1 itself; also called T7OE) MVFTLEDFVGDWEQTAAYNLDQVLEQGGVSSLLQNLAVSVTPIQRIVRSGENALKIDIHVIIPYEGLSADQMAQIEEVFKVVYPVDDHHFKVILPYGTLVIDGVTPNMLNYFGRPYEGIAVFDGKKITVTGTLWNGNKIIDERLITPDGSMLFRVTINSGSSGGGGSGGGGSSG[about 120 residues with changes not written out] | binds |  |
| B1 |  | binding result [3]: no binding |
